Test [1] deals with MCF-7, T47D, and MDA-MB-231 breast cancer cell lines. Kind of test: Dose response, luciferase-based ATP (ATPlite) viability assay. The test is classed as cell-based, human. To be noted: five days of treatment. (ATP-based viability assays read luminescence as a measure of living cells.)
In test [2] the test system is MCF-7, T47D, and MDA-MB-231 cells. Kind of test: Intracellular Zn^2+ by FluoZin-3 staining and flow cytometry. The test is classed as cell-based. How it is done: Measurement of intracellular Zn^2+ by FluoZin-3 staining: Cells were seeded in 6-well plates at a density such that at the time of analysis, wells would be 70-80% confluent. Following the completion of treatment, the drug-containing media was removed and replaced with Hank's Balanced Salt Solution (HBSS, Life Technologies) containing 2.5 μM FluoZin-3. The cells were incubated with the indicator for 30 minutes at room temperature in the dark. After staining, the cells were trypsinized, resuspended in HBSS containing 2% FBS, and relative mean fluorescence was measured by flow cytometry (FACscan, BD Biosciences, San Jose, Calif., USA).
In order to determine whether the transcriptional changes in metal trafficking genes were functionally relevant to ZNA's mechanism of action, intracellular Zn^2+ was quantified using the fluorescent indicator FluoZin-3 followed by flow cytometry analysis (FIG. 1G).
To better understand the cancer-selective synergism observed between ZNA and Zn^2+, an experiment was conducted to measure intracellular Zn^2+ using the fluorescent Zn^2+ indicator FluoZin-3.
For orientation: In flow cytometry, cells or beads pass a laser one at a time.

Test [3] concerns MCF-7, T47D, and MDA-MB-231 breast cancer cell lines. Kind of test: Cell viability (ATP quantification) with exogenously added transition metals. The test is classed as cell-based, human.
For test [4], the system named is MCF-10A normal mammary epithelial cell line. The test is described as above. To be noted: 30 μM ZNA with Fe(III)Cl3, Fe(II)SO4, NiSO4, MnCl2 or CoCl2, 48 hours, compared to ZNA alone. How it is done: Considering ZNA's ability to stimulate an increase in intracellular zinc and its effect on the transcription of metal trafficking genes, a study was next initiated to determine the effect of ZNA on cells treated in combination with exogenously added transition metals. Three breast cancer cell lines (MCF-7, T47D, and MDA-MB-231) and a normal mammary epithelial cell line (MCF-10A) were treated with 30 μM ZNA in conjunction with 30 M CuSO4, ZnSO4, Fe(III)Cl3, Fe(II)SO4, NiSO4, MnCl2, or CoCl2 for 48 hours; following the completion of treatment, cell viability was measured using an ATP quantification assay (FIG. 2A).

Test [5] relates to MCF-7, T47D, and MDA-MB-231 cells. The test is described as follows: Cell death by propidium iodide staining and flow cytometry. To be noted: for cell death (propidium iodide): MCF-7 cells; for ZNA-induced cell death (propidium iodide): ZNA with chloroquine, 72 hours. The test is classed as cell-based, human. The protocol:
Measurement of cell death by propidium iodide staining: Cells were cultured to 80% confluence in 6-well plates and the growth media was then replaced with low serum (2% FBS) drug-containing media. Each condition was assessed in triplicate. Following the completion of treatment, the media and floating cells were collected and combined with the trypsinized adherent cells. The cells were washed with 2% FBS/HBSS, and resuspended in a propidium iodide solution (Cell Signaling) for analysis by flow cytometry. The percentage of propidium iodide positive cells for each treatment condition were averaged and normalized to the vehicle-treated control. The normalized data were plotted as the average±standard error of three replicates.
In order to validate the transition metal screen with a second cell viability assay, propidium iodide uptake was measured in four cell lines by flow cytometry following a 24-hour treatment with either 30 μM ZNA alone or in combination with 30 µM CuSO4 or 30 μM ZnSO4 (FIG. 2B).
As such, MCF-7 cells were treated with 30 μM ZNA alone or in combination with ZnSO4 and/or the RIP1 inhibitor Necrostatin-1 for 24 hours; a positive control, the small molecule shikonin, was also included in the assay. Han W et al. Shikonin circumvents cancer drug resistance by induction of a necroptotic death. Mol Cancer Ther 2007; 6(5):1641-49. Cells were subsequently stained with propidium iodide and fluorescence was measured by flow cytometry to quantify cell death (FIG. 5A).
Since autophagy can stimulate both pro-death and pro-survival pathways, experiments were next conducted to assess how autophagic inhibitors impacted ZNA's cell death profile. If autophagy contributes to ZNA-induced cell death, then an inhibitor of autophagic processes would be expected to reduce ZNA-promoted cell death. See Dalby et al., Autophagy 2010; 6(3):322-29. As such, cells were treated with ZNA in combination with chloroquine, an inhibitor of autophagosome function, and cell death was assessed by propidium iodide stain following 72 hours of treatment. Kimura et al. Cancer Res 2013; 73(1):3-7.

Test [6] shares this test system. Kind of test: Cellular proliferation, EdU incorporation assay. The protocol:
Measurement of cellular proliferation: Cells were seeded in six-well plates at densities such that wells would be approximately 80% confluent at the end of treatment. Cells were treated with drug diluted in low serum (2% FBS) media for the appropriate length of time then 5-ethynyl-2′-deoxyuridine (EdU, Life Technologies) was added directly to the media to achieve a final concentration of 10 M EdU; the cells were then incubated at 37° C. for 30 minutes. EdU incorporation and propidium iodide staining were assessed by flow cytometry following the manufacturer's protocol (Life Technologies) and analyzed as described in Gligorich et al.
Upon finding that ZNA synergized strongly with exogenously added Zn^2+ to promote rapid and cancer-specific cell death, experiments were conducted to determine the effect of treatment on cellular proliferation and to characterize the cell death induced by the combinatorial treatment. First, a 5-ethynyl-2′-deoxyuridine (EdU) incorporation assay was utilized to assess the effects of ZNA and ZNA/ZnSO4 treatment on cellular proliferation. […]

In test [7] the test system is caspase 3/7, 8 and 9 activities in MCF-10A, T47D, and MDA-MB-231 cells. The test is described as follows: Caspase-Glo assay. The class given is cell-based, human. The protocol: Measurement of caspase activity: Caspase 3/7, 8, and 9 activities were measured using Promega (Madison, Wis., USA) Caspase-Glo assays. Briefly, cells were seeded in 96-well white-bottom, white-wall plates at a density such that at the time of analysis wells would be 80% confluent.
In order to establish whether ZNA-treated cells undergo apoptosis, caspase 3/7, 8 and 9 activities were measured using a luciferase-based Caspase-Glo assay. […] Jänicke R U, Sprengart M L, Wati M R, Porter A G. Caspase-3 Is Required for DNA Fragmentation and Morphological Changes Associated with Apoptosis. J Biol Chem 1998; 273(16):9357-60. Caspase activity was then measured for each condition and normalized to the vehicle-treated control (FIG. 4B).

Test [8] concerns LC3 in MCF-7, T47D, and MDA-MB-231 cells. Kind of test: Western blot of autophagosome-associated protein LC3A/B. The class given is cell-based, human. To be noted: for LC3 protein: 30 μM ZNA with 30 μM ZnSO4, 6 hours. The protocol: Western blot analysis: For analysis of protein expression by Western blot analysis, the procedure set forth in Gligorich et al. was used. Gligorich K, Vaden R, Shelton D, Wang G, Matsen C, Looper R, et al. Development of a screen to identify selective small molecules active against patient-derived metastatic and chemoresistant breast cancer cells. Breast Cancer Res 2013; 15(4):R58. The cells were cultured and treated in 10-cm plates. Cells were harvested in cold radioimmunoprecipitation assay (RIPA) buffer (50 mM Tris-HCl, 150 mM NaCl, 0.1% sodium dodecyl sulfate (SDS), 0.5% sodium deoxycholate, and 1% Triton X-100) supplemented with protease and phosphatase inhibitors (Sigma). Protein concentration was measured using a BCA assay (Thermo Scientific) and […] of protein was resolved by gel electrophoresis using an SDS polyacrylamide gel. Protein was transferred to an Immobilon-FL PVDF membrane (Millipore, Billerica, Mass., USA) and the membrane was blocked for 1 hour at room temperature with Odyssey blocking buffer (Li—COR). The membrane was incubated with primary antibody diluted in Odyssey blocking buffer overnight at 4° C. then washed with tris-buffered saline. After incubation for 1 hour at room temperature with secondary antibodies diluted in Odyssey blocking buffer, the blot was imaged with the Odyssey Infrared Imaging System (LI-COR).
Further cell death characterization studies were also conducted to establish the role of autophagy in ZNA-mediated cell death. To assess the level of autophagic induction following treatment with ZNA, levels of the autophagosome-associated protein LC3A/B were measured by western blot analysis. […] Kabeya et al. EMBO J 2000; 19(21):5720-28. […] Taking into consideration the rapid cell death induced by the combination of ZNA and ZnSO4, an earlier time point (6 hours) was chosen to assess LC3 levels for the combination treatment condition.
On the technique in general: In western blotting, separated proteins are transferred to a membrane and probed.

For test [9], the system named is MCF-10A, MCF-7, T47D, and MDA-MB-231 cells. The test is described as follows: Oxidative stress, H2DCFDA (DCF) oxidation by flow cytometry. The test is classed as cell-based, human. How it is done:
Measurement of oxidative stress: Oxidative stress induced by drug treatment was assessed by measuring the oxidation of 2′,7′-dichlorodihydrofluorescein diacetate (H2DCFDA). Briefly, cells were seeded in 6-well plates and treated with drug diluted in low serum (2% FBS) media for the appropriate length of time. The media was then replaced with HBSS containing 30 μM H2DCFDA and the plates incubated at room temperature for 30 minutes. Cells were then trypsinized, washed with 2% FBS/HBSS, and resuspended in 2% FBS/HBSS for analysis by flow cytometry. The relative mean fluorescence for each condition was normalized to the corresponding vehicle-treated control and the values were then plotted as an average±standard error.
Further probing the caspase independent cell death induced by ZNA, experiments were next conducted to characterize the extent of oxidative stress during the cell death process. […] The decreased levels of H2DCFDA oxidation observed with ZNA and ZnSO4 combinatorial treatment are consistent with literature reports detailing a connection between increased intracellular Zn^2+ and decreased oxidative stress. E.g., Ho E, Ames B N, Proc Natl Acad Sci USA 2002; 99(26): 16770-75. Attempts to inhibit this increase with the antioxidant N-acetylcysteine (NAC) were successful only with T47D cells; however, a concomitant decrease in cell death was not observed (FIG. 9). […]

Data on one compound can be found in patent publication US10493061B2, “Compositions and methods comprising 2-(acylamino)imidazoles” (priority 2014, dated 2019).

On to `COc1ccc(-c2c(Cc3ccccc3)[nH]/c(=N\C(=O)c3ccccc3F)n2C)cc1` [ZNA, (E)-N-(4-benzyl-5-(4-methoxyphenyl)-1-methyl-1H-imidazol-2(3H)-ylidene)-2-fluorobenzamide], for which the cell viability result is “decreased cell viability” in test [1]; “significant reduction in cell viability” in test [3] (30 μM ZNA with CuSO4, 48 hours); “no significant change in cell viability” in [3] (30 μM ZNA with Fe(III)Cl3, Fe(II)SO4, NiSO4, MnCl2 or CoCl2, 48 hours, compared to ZNA alone); “decrease in cell viability” in [3] (30 μM ZNA with ZnSO4, 48 hours); “no significant change in cell viability” in test [4]. Also, the “intracellular zinc (FluoZin-3)” value in [2] (30 μM ZNA alone, up to 48 hours, T47D and MDA-MB-231) was “only modest increases in intracellular zinc”. In addition, the “increase in FluoZin-3 fluorescence” value in [2] (30 μM ZNA with 30 μM ZnSO4, three hours) is given as at least 34 fold. For the same compound, the “intracellular Zn^2+ (FluoZin-3)” value in [2] (ZNA with Actinomycin D (ACTD), 24 hours, compared to ZNA alone) is listed as “statistically significant increases in intracellular Zn^2+”. In test [5] (30 μM ZNA with CuSO4 or 30 μM ZnSO4, 24 hours), the “cell death (propidium iodide uptake)” value is reported as “induced cell death in cancer cells more rapidly than with ZNA alone”. For the same compound, the “cell death (propidium iodide)” value is listed as “significantly higher levels of cell death than with ZNA alone” in test [5] (30 μM ZNA with ZnSO4, 24 hours); “no rescue in cell death” in [5] (ZNA and ZnSO4 with RIP1 inhibitor necrostatin-1, 24 hours). The “ZNA-induced cell death (propidium iodide)” value in test [5] (MCF-7 and MDA-MB-231 cells) is “did not significantly affect cell death”; in test [5] (T47D cells) it was “decreased ZNA-induced cell death”. For the same compound, the EdU incorporation entry in test [6] (ZNA alone, MCF-7 and T47D cells) is “statistically significant decrease in EdU incorporation”. Further, the “proliferation (EdU)” value in test [6] (ZNA/ZnSO4, 6 hours) is recorded as “complete block in proliferation”. The “caspase 3/7, 8, or 9 activity” value in [7] (30 μM ZNA alone or with 30 μM ZnSO4, 6 hours) is “no caspase 3/7, 8, or 9 activity was observed”. Further, the “caspase 3/7, 8 or 9 activation” value in test [7] (30 μM ZNA, 72 hours) was “did not activate caspases 3/7, 8 or 9”. Further, the LC3 protein entry is on record as “significant increases were not observed” in test [8] (MCF-7 and MDA-MB-231 cells); “apparent increase in LC3 protein” in test [8] (T47D cells). In addition, the LC3 level result in [8] (ZNA alone, 48 and 72 hours) is given as “increase in LC3”. In addition, the DCF fluorescence entry in test [9] (30 μM ZNA alone, up to 48 hours) is recorded as “slight increase in DCF fluorescence”. Besides, the H2DCFDA oxidation entry in test [9] (30 μM ZNA with 30 μM ZnSO4, three cancer cell lines, compared to controls) is “statistically significant decrease in H2DCFDA oxidation”.
